Data on 27 molecules can be found in patent publication US20110319597A1 (CAPHALON AUSTRALIA, published 2011).

B1: TNFα dAb Fc variant A43H (Fc fusion, name in Kabat numbering)
chain: DIQMTQSPSSLSASVGDRVTITCRASQAIDSYLHWYQQKPGKHPKLLIYSASNLETGVPSRFSGSGSGTDFTLTISSLLPEDFATYYCQQVVWRPFTFGQGTKVEIKRV[human IgG1 Fc with changes left out]
B2: TNFα dAb Fc variant A43K (Fc fusion, name in Kabat numbering)
chain: DIQMTQSPSSLSASVGDRVTITCRASQAIDSYLHWYQQKPGKKPKLLIYSASNLETGVPSRFSGSGSGTDFTLTISSLLPEDFATYYCQQVVWRPFTFGQGTKVEIKRV[human IgG1 Fc with changes left out]
B3: TNFα dAb Fc variant A43Y (Fc fusion, name in Kabat numbering)
chain: DIQMTQSPSSLSASVGDRVTITCRASQAIDSYLHWYQQKPGKYPKLLIYSASNLETGVPSRFSGSGSGTDFTLTISSLLPEDFATYYCQQVVWRPFTFGQGTKVEIKRV[human IgG1 Fc with changes left out]
B4: TNFα dAb Fc variant D70A (Fc fusion, name in Kabat numbering)
chain: DIQMTQSPSSLSASVGDRVTITCRASQAIDSYLHWYQQKPGKAPKLLIYSASNLETGVPSRFSGSGSGTAFTLTISSLLPEDFATYYCQQVVWRPFTFGQGTKVEIKRV[human IgG1 Fc with changes left out]
B5: TNFα dAb Fc variant A43Q (Fc fusion, name in Kabat numbering)
chain: DIQMTQSPSSLSASVGDRVTITCRASQAIDSYLHWYQQKPGKQPKLLIYSASNLETGVPSRFSGSGSGTDFTLTISSLLPEDFATYYCQQVVWRPFTFGQGTKVEIKRV[human IgG1 Fc with changes left out]
B6: TNFα dAb Fc (Fc fusion)
chain: DIQMTQSPSSLSASVGDRVTITCRASQAIDSYLHWYQQKPGKAPKLLIYSASNLETGVPSRFSGSGSGTDFTLTISSLLPEDFATYYCQQVVWRPFTFGQGTKVEIKRV[human IgG1 Fc with changes left out]
B7: TNFα dAb Fc variant R18D (Fc fusion, name in Kabat numbering)
chain: DIQMTQSPSSLSASVGDDVTITCRASQAIDSYLHWYQQKPGKAPKLLIYSASNLETGVPSRFSGSGSGTDFTLTISSLLPEDFATYYCQQVVWRPFTFGQGTKVEIKRV[human IgG1 Fc with changes left out]
B8: TNFα dAb Fc variant D17K (Fc fusion, name in Kabat numbering)
chain: DIQMTQSPSSLSASVGKRVTITCRASQAIDSYLHWYQQKPGKAPKLLIYSASNLETGVPSRFSGSGSGTDFTLTISSLLPEDFATYYCQQVVWRPFTFGQGTKVEIKRV[human IgG1 Fc with changes left out]
B9: TNFα dAb Fc variant V15P (Fc fusion, name in Kabat numbering)
chain: DIQMTQSPSSLSASPGDRVTITCRASQAIDSYLHWYQQKPGKAPKLLIYSASNLETGVPSRFSGSGSGTDFTLTISSLLPEDFATYYCQQVVWRPFTFGQGTKVEIKRV[human IgG1 Fc with changes left out]
B10: TNFα dAb Fc variant R18S (Fc fusion, name in Kabat numbering)
chain: DIQMTQSPSSLSASVGDSVTITCRASQAIDSYLHWYQQKPGKAPKLLIYSASNLETGVPSRFSGSGSGTDFTLTISSLLPEDFATYYCQQVVWRPFTFGQGTKVEIKRV[human IgG1 Fc with changes left out]
B11: TNFα dAb Fc variant R18Q (Fc fusion, name in Kabat numbering)
chain: DIQMTQSPSSLSASVGDQVTITCRASQAIDSYLHWYQQKPGKAPKLLIYSASNLETGVPSRFSGSGSGTDFTLTISSLLPEDFATYYCQQVVWRPFTFGQGTKVEIKRV[human IgG1 Fc with changes left out]
B12: TNFα dAb Fc variant R18A (Fc fusion, name in Kabat numbering)
chain: DIQMTQSPSSLSASVGDAVTITCRASQAIDSYLHWYQQKPGKAPKLLIYSASNLETGVPSRFSGSGSGTDFTLTISSLLPEDFATYYCQQVVWRPFTFGQGTKVEIKRV[human IgG1 Fc with changes left out]
B13: TNFα dAb Fc variant R18Y (Fc fusion, name in Kabat numbering)
chain: DIQMTQSPSSLSASVGDYVTITCRASQAIDSYLHWYQQKPGKAPKLLIYSASNLETGVPSRFSGSGSGTDFTLTISSLLPEDFATYYCQQVVWRPFTFGQGTKVEIKRV[human IgG1 Fc with changes left out]
B14: TNFα dAb Fc variant D17A (Fc fusion, name in Kabat numbering)
chain: DIQMTQSPSSLSASVGARVTITCRASQAIDSYLHWYQQKPGKAPKLLIYSASNLETGVPSRFSGSGSGTDFTLTISSLLPEDFATYYCQQVVWRPFTFGQGTKVEIKRV[human IgG1 Fc with changes left out]
B15: TNFα dAb Fc variant S14Q (Fc fusion, name in Kabat numbering)
chain: DIQMTQSPSSLSAQVGDRVTITCRASQAIDSYLHWYQQKPGKAPKLLIYSASNLETGVPSRFSGSGSGTDFTLTISSLLPEDFATYYCQQVVWRPFTFGQGTKVEIKRV[human IgG1 Fc with changes left out]
B16: TNFα dAb Fc variant D17L (Fc fusion, name in Kabat numbering)
chain: DIQMTQSPSSLSASVGLRVTITCRASQAIDSYLHWYQQKPGKAPKLLIYSASNLETGVPSRFSGSGSGTDFTLTISSLLPEDFATYYCQQVVWRPFTFGQGTKVEIKRV[human IgG1 Fc with changes left out]
B17: TNFα dAb Fc variant R18H (Fc fusion, name in Kabat numbering)
chain: DIQMTQSPSSLSASVGDHVTITCRASQAIDSYLHWYQQKPGKAPKLLIYSASNLETGVPSRFSGSGSGTDFTLTISSLLPEDFATYYCQQVVWRPFTFGQGTKVEIKRV[human IgG1 Fc with changes left out]
B18: TNFα dAb Fc variant D17S (Fc fusion, name in Kabat numbering)
chain: DIQMTQSPSSLSASVGSRVTITCRASQAIDSYLHWYQQKPGKAPKLLIYSASNLETGVPSRFSGSGSGTDFTLTISSLLPEDFATYYCQQVVWRPFTFGQGTKVEIKRV[human IgG1 Fc with changes left out]
B19: TNFα dAb Fc variant R18P (Fc fusion, name in Kabat numbering)
chain: DIQMTQSPSSLSASVGDPVTITCRASQAIDSYLHWYQQKPGKAPKLLIYSASNLETGVPSRFSGSGSGTDFTLTISSLLPEDFATYYCQQVVWRPFTFGQGTKVEIKRV[human IgG1 Fc with changes left out]
B20: TNFα dAb Fc variant S14H (Fc fusion, name in Kabat numbering)
chain: DIQMTQSPSSLSAHVGDRVTITCRASQAIDSYLHWYQQKPGKAPKLLIYSASNLETGVPSRFSGSGSGTDFTLTISSLLPEDFATYYCQQVVWRPFTFGQGTKVEIKRV[human IgG1 Fc with changes left out]
B21: TNFα dAb Fc variant G16Y (Fc fusion, name in Kabat numbering)
chain: DIQMTQSPSSLSASVYDRVTITCRASQAIDSYLHWYQQKPGKAPKLLIYSASNLETGVPSRFSGSGSGTDFTLTISSLLPEDFATYYCQQVVWRPFTFGQGTKVEIKRV[human IgG1 Fc with changes left out]
B22: TNFα dAb Fc variant V15A (Fc fusion, name in Kabat numbering)
chain: DIQMTQSPSSLSASAGDRVTITCRASQAIDSYLHWYQQKPGKAPKLLIYSASNLETGVPSRFSGSGSGTDFTLTISSLLPEDFATYYCQQVVWRPFTFGQGTKVEIKRV[human IgG1 Fc with changes left out]
B23: TNFα dAb Fc variant D17H (Fc fusion, name in Kabat numbering)
chain: DIQMTQSPSSLSASVGHRVTITCRASQAIDSYLHWYQQKPGKAPKLLIYSASNLETGVPSRFSGSGSGTDFTLTISSLLPEDFATYYCQQVVWRPFTFGQGTKVEIKRV[human IgG1 Fc with changes left out]
B24: TNFα dAb Fc variant S14P (Fc fusion, name in Kabat numbering)
chain: DIQMTQSPSSLSAPVGDRVTITCRASQAIDSYLHWYQQKPGKAPKLLIYSASNLETGVPSRFSGSGSGTDFTLTISSLLPEDFATYYCQQVVWRPFTFGQGTKVEIKRV[human IgG1 Fc with changes left out]
B25: TNFα dAb Fc variant D17Q (Fc fusion, name in Kabat numbering)
chain: DIQMTQSPSSLSASVGQRVTITCRASQAIDSYLHWYQQKPGKAPKLLIYSASNLETGVPSRFSGSGSGTDFTLTISSLLPEDFATYYCQQVVWRPFTFGQGTKVEIKRV[human IgG1 Fc with changes left out]
B26: TNFα dAb Fc variant D17P (Fc fusion, name in Kabat numbering)
chain: DIQMTQSPSSLSASVGPRVTITCRASQAIDSYLHWYQQKPGKAPKLLIYSASNLETGVPSRFSGSGSGTDFTLTISSLLPEDFATYYCQQVVWRPFTFGQGTKVEIKRV[human IgG1 Fc with changes left out]
B27: TNFα dAb Fc variant S14K (Fc fusion, name in Kabat numbering)
chain: DIQMTQSPSSLSAKVGDRVTITCRASQAIDSYLHWYQQKPGKAPKLLIYSASNLETGVPSRFSGSGSGTDFTLTISSLLPEDFATYYCQQVVWRPFTFGQGTKVEIKRV[human IgG1 Fc with changes left out]

In one experiment the target is T1, recombinant human TNFα (CytoLab) (human, UniProt P01375 part only).
T1 construct: coated on the ELISA plate at 1 µg/ml; also called Tumour necrosis factor alpha
In words: ELISA on coated human TNFα. On the technique in general: ELISA stands for enzyme-linked immunosorbent assay.
B1: the “A450 (AU)” value worked out at 1.02 AU.

B2: the “A450 (AU)” value was determined as 1.02 AU. On to B3, for which the “A450 (AU)” value worked out at 0.976 AU. Take B4: the “A450 (AU)” value was found to be 0.916 AU. On the same count and under the same terms, for B5 the value was 1.05 AU.

A further experiment deals with recombinant human TNFα (human, UniProt P01375 part only). Nature of the experiment: cell-based or functional assay.
B1: the Standardized EC50, L929 neutralization assay (5-point) turned out to be 2.74 µg/mL. Still for that read-out and setting: for B6 the value was 1.2 µg/mL; for B7, 0.741 µg/mL. As to B8, the Standardized EC50, L929 neutralization assay (5-point) is 8.84 µg/mL.

On to B9, for which the Standardized EC50, L929 neutralization assay (5-point) stood at 1.24 µg/mL. Consider B10, for which the Standardized EC50, L929 neutralization assay (5-point) was found to be 0.851 µg/mL. On the same count and under the same terms, in the case of B11 it was 2.75 µg/mL. Turning to B12, the Standardized EC50, L929 neutralization assay (5-point) came to 3.21 µg/mL.

Take B13: the Standardized EC50, L929 neutralization assay (5-point) was determined as 1.59 µg/mL. Regarding B14, the Standardized EC50, L929 neutralization assay (5-point) is 4.67 µg/mL. The same measure, in the same setting: for B15 the value was 0.841 µg/mL; for B16, 2.66 µg/mL. For the molecule B17, the Standardized EC50, L929 neutralization assay (5-point) was determined as 2.39 µg/mL.

In the case of B18, the Standardized EC50, L929 neutralization assay (5-point) was 0.909 µg/mL. Turning to B19, the Standardized EC50, L929 neutralization assay (5-point) came out at 1.19 µg/mL.

In the case of B20, the Standardized EC50, L929 neutralization assay (5-point) turned out to be 4130 µg/mL. On the same count and under the same terms, for B21 the value was 1.97 µg/mL; for B22, 2.4 µg/mL. B23: the Standardized EC50, L929 neutralization assay (5-point) was found to be 10.5 µg/mL. Still for that read-out and setting: in the case of B24 it was 9.96 µg/mL; in that of B25, 0.863 µg/mL; in that of B26, 668 µg/mL. The same measure, in the same setting: in the case of B27 it was 1.76 µg/mL; in that of B2, 3.13 µg/mL; in that of B3, 666 µg/mL. The same measure, in the same setting: in the case of B4 it was 2.04 µg/mL; in that of B5, 2.69 µg/mL.
